# This is one part of the list. Binding of human transcription factors and regulators to the viral nucleoprotein by AlphaScreen, crude cell-free proteins, amounts not normalised, one pass. Fold of the Venus control; higher = more signal. No active / inactive call. Single-pass screen; sequences are the whole Swiss-Prot entries looked up by name.
# B1: RNF2, Q99496 (protein)
# chain: MSQAVQTNGTQPLSKTWELSLYELQRTPQEAITDGLEIVVSPRSLHSELMCPICLDMLKNTMTTKECLHRFCADCIITALRSGNKECPTCRKKLVSKRSLRPDPNFDALISKIYPSRDEYEAHQERVLARINKHNNQQALSHSIEEGLKIQAMNRLQRGKKQQIENGSGAEDNGDSSHCSNASTHSNQEAGPSNKRTKTSDDSGLELDNNNAAMAIDPVMDGASEIELVFRPHPTLMEKDDSAQTRYIKTSGNATVDHLSKYLAVRLALEELRSKGESNQMNLDTASEKQYTIYIATASGQFTVLNGSFSLELVSEKYWKVNKPMELYYAPTKEHK
# B2: TCF15, Q12870 (protein)
# chain: MAFALLRPVGAHVLYPDVRLLSEDEENRSESDASDQSFGCCEGPEAARRGPGPGGGRRAGGGGGAGPVVVVRQRQAANARERDRTQSVNTAFTALRTLIPTEPVDRKLSKIETVRLASSYIAHLANVLLLGDSADDGQPCFRAAGSAKGAVPAAADGGRQPRSICTFCLSNQRKGGGRRDLGGSCLKVRGVAPLRGPRR
# B3: ERC1, Q8IUD2 (protein)
# chain: MYGSARSVGKVEPSSQSPGRSPRLPRSPRLGHRRTNSTGGSSGSSVGGGSGKTLSMENIQSLNAAYATSGPMYLSDHENVGSETPKSTMTLGRSGGRLPYGVRMTAMGSSPNIASSGVASDTIAFGEHHLPPVSMASTVPHSLRQARDNTIMDLQTQLKEVLRENDLLRKDVEVKESKLSSSMNSIKTFWSPELKKERALRKDEASKITIWKEQYRVVQEENQHMQMTIQALQDELRIQRDLNQLFQQDSSSRTGEPCVAELTEENFQRLHAEHERQAKELFLLRKTLEEMELRIETQKQTLNARDESIKKLLEMLQSKGLSAKATEEDHERTRRLAEAEMHVHHLESLLEQKEKENSMLREEMHRRFENAPDSAKTKALQTVIEMKDSKISSMERGLRDLEEEIQMLKSNGALSTEEREEEMKQMEVYRSHSKFMKNKVEQLKEELSSKEAQWEELKKKAAGLQAEIGQVKQELSRKDTELLALQTKLETLTNQFSDSKQHIEVLKESLTAKEQRAAILQTEVDALRLRLEEKETMLNKKTKQIQDMAEEKGTQAGEIHDLKDMLDVKERKVNVLQKKIENLQEQLRDKEKQMSSLKERVKSLQADTTNTDTALTTLEEALAEKERTIERLKEQRDRDEREKQEEIDNYKKDLKDLKEKVSLLQGDLSEKEASLLDLKEHASSLASSGLKKDSRLKTLEIALEQKKEECLKMESQLKKAHEAALEARASPEMSDRIQHLEREITRYKDESSKAQAEVDRLLEILKEVENEKNDKDKKIAELERQVKDQNKKVANLKHKEQVEKKKSAQMLEEARRREDNLNDSSQQLQDSLRKKDDRIEELEEALRESVQITAEREMVLAQEESARTNAEKQVEELLMAMEKVKQELESMKAKLSSTQQSLAEKETHLTNLRAERRKHLEEVLEMKQEALLAAISEKDANIALLELSSSKKKTQEEVAALKREKDRLVQQLKQQTQNRMKLMADNYEDDHFKSSHSNQTNHKPSPDQIIQPLLELDQNRSKLKLYIGHLTTLCHDRDPLILRGLTPPASYNLDDDQAAWENELQKMTRGQLQDELEKGERDNAELQEFANAILQQIADHCPDILEQVVNALEESS
# B4: POU5F1B, Q06416 (protein)
# chain: MAGHLASDFAFSPPPGGGGDGPWGAEPGWVDPLTWLSFQGPPGGPGIGPGVGPGSEVWGIPPCPPPYELCGGMAYCGPQVGVGLVPQGGLETSQPESEAGVGVESNSNGASPEPCTVPPGAVKLEKEKLEQNPEKSQDIKALQKELEQFAKLLKQKRITLGYTQADVGLILGVLFGKVFSQKTICRFEALQLSFKNMCKLRPLLQKWVEEADNNENLQEICKAETLMQARKRKRTSIENRVRGNLENLFLQCPKPTLQISHIAQQLGLEKDVVRVWFCNRRQKGKRSSSDYAQREDFEAAGSPFSGGPVSFPPAPGPHFGTPGYGSPHFTALYSSVPFPEGEVFPPVSVITLGSPMHSN
# B5: NOBOX, O60393 (protein)
# chain: MALLLTLTSPDLEGTWDTRDKDGFKAQEGPPLAVPEFPVCGLYRIYGVCGSFSSFFIIRCSLCALETLKSPQHDPLEIPEQSLKLIPLVSGKRELTRGQKAGEKPLAAGPGEEELLRGSAPHAQDTQSEELPPSCTISGEKKPPAVSGEATGADAGRLCPPPRSRAPHKDRTLARSRPQTQGEDCSLPVGEVKIGKRSYSPAPGKQKKPNAMGLAPTSSPGAPNSARATHNPVPCGSGRGPCHLANLLSTLAQSNQNRDHKQGPPEVTCQIRKKTRTLYRSDQLEELEKIFQEDHYPDSDKRREIAQTVGVTPQRIMVKGAGSLVAGWSGGGPTIETLELQSERSAVAWVWFQNRRAKWRKMEKLNGKESKDNPAAPGPASSQCSSAAEILPAVPMEPKPDPFPQESPLDTFPEPPMLLTSDQTLAPTQPSEGAQRVVTPPLFSPPPVRRADLPFPLGPVHTPQLMPLLMDVAGSDSSHKDGPCGSWGTSITLPPPCSYLEELEPQDYQQSNQPGPFQFSQAPQPPLFQSPQPKLPYLPTFPFSMPSSLTLPPPEDSLFMFPCGPSGGTSQGYCPGASSGQILMQPPAGNIGTASWSDPCLPELPFPGPFCPQALGHPPGGDGYFPDLFPTPCPQALGRQPSSALSWMPEGARPGTGPLLSKAKEEPPAASLDQPSALEEARGDDKNSHVP
# B6: MSGN1, A6NI15 (protein)
# chain: MDNLRETFLSLEDGLGSSDSPGLLSSWDWKDRAGPFELNQASPSQSLSPAPSLESYSSSPCPAVAGLPCEHGGASSGGSEGCSVGGASGLVEVDYNMLAFQPTHLQGGGGPKAQKGTKVRMSVQRRRKASEREKLRMRTLADALHTLRNYLPPVYSQRGQPLTKIQTLKYTIKYIGELTDLLNRGREPRAQSA
# B7: THRB, P10828 (protein)
# chain: MTPNSMTENGLTAWDKPKHCPDREHDWKLVGMSEACLHRKSHSERRSTLKNEQSSPHLIQTTWTSSIFHLDHDDVNDQSVSSAQTFQTEEKKCKGYIPSYLDKDELCVVCGDKATGYHYRCITCEGCKGFFRRTIQKNLHPSYSCKYEGKCVIDKVTRNQCQECRFKKCIYVGMATDLVLDDSKRLAKRKLIEENREKRRREELQKSIGHKPEPTDEEWELIKTVTEAHVATNAQGSHWKQKRKFLPEDIGQAPIVNAPEGGKVDLEAFSHFTKIITPAITRVVDFAKKLPMFCELPCEDQIILLKGCCMEIMSLRAAVRYDPESETLTLNGEMAVTRGQLKNGGLGVVSDAIFDLGMSLSSFNLDDTEVALLQAVLLMSSDRPGLACVERIEKYQDSFLLAFEHYINYRKHHVTHFWPKLLMKVTDLRMIGACHASRFLHMKVECPTELFPPLFLEVFED
# B8: BCL11B, Q9C0K0 (protein)
# chain: MSRRKQGNPQHLSQRELITPEADHVEAAILEEDEGLEIEEPSGLGLMVGGPDPDLLTCGQCQMNFPLGDILVFIEHKRKQCGGSLGACYDKALDKDSPPPSSRSELRKVSEPVEIGIQVTPDEDDHLLSPTKGICPKQENIAGPCRPAQLPAVAPIAASSHPHSSVITSPLRALGALPPCLPLPCCSARPVSGDGTQGEGQTEAPFGCQCQLSGKDEPSSYICTTCKQPFNSAWFLLQHAQNTHGFRIYLEPGPASSSLTPRLTIPPPLGPEAVAQSPLMNFLGDSNPFNLLRMTGPILRDHPGFGEGRLPGTPPLFSPPPRHHLDPHRLSAEEMGLVAQHPSAFDRVMRLNPMAIDSPAMDFSRRLRELAGNSSTPPPVSPGRGNPMHRLLNPFQPSPKSPFLSTPPLPPMPPGGTPPPQPPAKSKSCEFCGKTFKFQSNLIVHRRSHTGEKPYKCQLCDHACSQASKLKRHMKTHMHKAGSLAGRSDDGLSAASSPEPGTSELAGEGLKAADGDFRHHESDPSLGHEPEEEDEEEEEEEEELLLENESRPESSFSMDSELSRNRENGGGGVPGVPGAGGGAAKALADEKALVLGKVMENVGLGALPQYGELLADKQKRGAFLKRAAGGGDAGDDDDAGGCGDAGAGGAVNGRGGGFAPGTEPFPGLFPRKPAPLPSPGLNSAAKRIKVEKDLELPPAALIPSENVYSQWLVGYAASRHFMKDPFLGFTDARQSPFATSSEHSSENGSLRFSTPPGDLLDGGLSGRSGTASGGSTPHLGGPGPGRPSSKEGRRSDTCEYCGKVFKNCSNLTVHRRSHTGERPYKCELCNYACAQSSKLTRHMKTHGQIGKEVYRCDICQMPFSVYSTLEKHMKKWHGEHLLTNDVKIEQAERS
# B9: ATF7, P17544 (protein)
# chain: MGDDRPFVCNAPGCGQRFTNEDHLAVHKHKHEMTLKFGPARTDSVIIADQTPTPTRFLKNCEEVGLFNELASSFEHEFKKAADEDEKKAAAGPLDMSLPSTPDIKIKEEEPVEVDSSPPDSPASSPCSPPLKEKEVTPKPVLISTPTPTIVRPGSLPLHLGYDPLHPTLPSPTSVITQAPPSNRQMGSPTGSLPLVMHLANGQTMPVLPGPPVQMPSVISLARPVSMVPNIPGIPGPPVNSSGSISPSGHPIPSEAKMRLKATLTHQVSSINGGCGMVVGTASTMVTARPEQSQILIQHPDAPSPAQPQVSPAQPTPSTGGRRRRTVDEDPDERRQRFLERNRAAASRCRQKRKLWVSSLEKKAEELTSQNIQLSNEVTLLRNEVAQLKQLLLAHKDCPVTALQKKTQGYLESPKESSEPTGSPAPVIQHSSATAPSNGLSVRSAAEAVATSVLTQMASQRTELSMPIQSHVIMTPQSQSAGR
# Biological target: nucleoprotein N of Crimean-Congo hemorrhagic fever virus
# Experiment: AlphaScreen luminescence signal relative to Venus negative control (fold); higher = stronger binding to CCHFV N
# Protocol: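 AlphaScreen binding of cell-free made, FLAG-GST-tagged human transcription factors and regulators (crude translation products) to biotinylated N protein; signal as fold of the FLAG-GST-Venus control. One pass.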
row,Binder,AlphaScreen luminescence signal
1,B1,2.09
2,B2,3.86
3,B3,1.35
4,B4,2.09
5,B5,2.47
6,B6,2.88
7,B7,6.88
8,B8,2.84
9,B9,2.6

# Source: the supplement of paper PMC12423691
